Data as given in the supplement of paper PMC3334620.
Over roughly 33,000 sequences, “E-score (-0.5 to 0.5)” has its median near -0.01; the highest 2% begin near 0.26. This is one part of the list.

biological target: Ste12 (UniProt P13574); test: PBM E-score (8-mer binding enrichment) (E-score (-0.5 to 0.5)); higher = stronger / more preferred TF binding; most listed sequences are background and not binding sites; conditions: protein concentration: 200 nM; construct: GST-DNA-binding domain
Summary of the method: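 Yeast transcription factors, full-length or as DNA-binding domains, were expressed with a GST tag using PURExpress in vitro transcription/translation. At about 100-200 nM they were applied to universal all-10-mer Agilent arrays, double-stranded by primer extension on fresh or once-stripped slides. Fluorescent anti-GST detected bound protein, and masliner normalised the scans. E-scores for ungapped eight-base words, pooled with reverse complements, came from the Universal PBM Analysis Suite.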

Sequence | PBM E-score
AAATTGGA | 0.0787
ACCAGGTA | -0.0709
AACGATTG | -0.0702
AGGTAGTG | -0.123
CCTTGGAG | -0.0707
ACCGTCCT | -0.234
CAATGAGA | -0.00961
ACGGTTAT | 0.0788
ACCAGCGC | -0.0495
GCTTGATA | 0.083
TCCTAAGA | -0.00559
ATATGATG | -0.0703
GTTGTAAA | 0.0455
AGGGCAGC | -0.327
AAACATGG | 0.206
ATGCACAA | 0.0737
AGTCACCC | -0.0517
CGTCGGTA | -0.0954
GAATAAAA | 0.137
AATGAAGT | -0.00833
TCAAATGA | 0.0955
ATATCGGG | 0.0327
GGACTCTA | -0.243
ACGGCGAG | 0.0521
GCATACAA | -0.0844

Sequence | PBM E-score
AACGGGAA | 0.0292
ACGTGTAG | -0.182
ACCACGTG | 0.0498
GCATCCCC | -0.131
ATTATTAA | 0.242
CACGCCGG | 0.141
TGAAAAAA | 0.293
ATGAGGAC | -0.0838
GCCATCGC | -0.196
CGTTTGCC | 0.0523
AGATAATG | 0.063
CTCATAGA | -0.0578
TATACTGA | 0.174
ACAAAGTG | 0.0815
ACAATCGA | 0.0393
ACGCGCGG | 0.158
TCGCCCAA | -0.0371
ATGAATAC | 0.0977
CAACCGGG | 0.0313
TGATTCAA | 0.179
CACATGGA | -0.221
TGTGATAA | 0.11
AAGTGCAA | -0.0141
CCCGGCAA | 0.0783
GCCCTGCC | -0.0475

Sequence | PBM E-score
AGGTGAGG | 0.0169
CTGAACGC | -0.132
CAATACGC | -0.142
CCGGCCGG | 0.248
AGAAGTCC | -0.247
GGTGACAA | 0.0614
TTCCTAAA | 0.0474
GCATCACC | -0.0706
CTGAAGTC | -0.0409
ACTCTAAA | 0.125
CTACCGCA | -0.21
AAGAGGTG | -0.0242
CATAATCG | 0.196
ATTAAGTC | -0.0618
AGGTATTA | 0.0192
ACTACTAG | 0.0458
TCGGCGAA | 0.0352
GCTTGCCA | -0.196
AGCGCGCT | 0.00199
CACCCTTA | 0.00998
ACGTCAAA | 0.0313
GTATGATA | 0.0429
GCCAGGCA | -0.0592
ACGCTAGG | -0.137
CTTTCGTA | 0.142

Sequence | PBM E-score
GACGTACC | -0.167
AGCCTAAT | -0.0402
AATATTAA | 0.327
ATATATGA | 0.188
AACAACGC | 0.111
CGGTCCAG | -0.256
AGTGCTGA | 0.0366
ACGGCGGC | -0.0851
CCCTTACC | 0.0255
ACGAACCG | -0.0535
AGCTCTTG | -0.0968
ATTAAAGG | 0.133
ATTTCCAC | 0.188
GAAACTTC | 0.189
ATCCGTCC | -0.0284
CGGGTACC | -0.148
ATATCCAT | 0.0604
AATTGGTC | 0.123
AGATCTAT | -0.0216
CACGTCAA | -0.217
CAGGAACC | -0.241
CTCTTCCC | -0.0727
AGCGTGAC | -0.001
ACCCAAGT | -0.00847
AACTAGTC | -0.0411

Sequence | PBM E-score
ATACTGGG | -0.0204
AACGATCG | 0.0136
AGGAGGAA | -0.0888
CGCTGGTA | -0.118
AACCACCT | 0.125
AAGCTTGG | -0.136
ACGCCATG | -0.167
CCTTAGGA | -0.114
TATTTCAA | 0.282
CAACAGGC | -0.109
AATCCAGT | 0.00589
ATTGTATA | 0.0784
TGGCAACA | -0.0715
CGGAGGAA | -0.167
AGGTCTTG | -0.0986
AAGGGGGA | -0.247
TAGCTCAA | -0.104
AAAGTTGC | -0.12
TACCGTCA | 0.0353
CCTGGCGA | -0.00458
AGGGCCCC | -0.278
TGAGCGCA | -0.25
CGCCCAGA | -0.0783
ACCGTTTG | -0.0273
AGGGGTCC | -0.215

Sequence | PBM E-score
ACCGGTGC | -0.0741
AATAGTTC | -0.0574
AATAACTC | 0.12
GGAACGTA | -0.0226
GCATTGCC | -0.194
CGCGGAAG | 0.116
GGATCCAA | -0.0177
CCGCTAAA | -0.197
CCCAGCCC | -0.17
AAGTATCG | -0.0231
TACGCGAA | 0.0572
CATGATGA | 0.0449
AGCATGTG | -0.139
AAGGCGGT | -0.0505
AGGCTAGG | -0.0905
TTGCACAA | -0.127
CGATCATC | -0.075
TATAGGCA | -0.179
TAGTTGAA | 0.145
AGACTCCA | -0.268
AAGTACCA | -0.12
TCACGCCA | -0.172
GTCCAAGA | -0.191
AATAATAA | 0.308
CACGATAC | -0.0561

Sequence | PBM E-score
GCGTTTTA | 0.352
CAGCCGAG | -0.0685
CCATTTCC | 0.037
AATTAAAT | 0.156
GGCTTAAA | 0.253
GCGAGCGC | -0.0453
GCACTCAC | -0.0309
ATCCTTCA | 0.0985
GACTTCAC | -0.16
CATTGGGC | -0.255
AAAACAAT | 0.225
CGTCCACC | -0.242
ATTGCTTG | -0.0516
GGTAAGGA | -0.108
CTCTCAAA | 0.0271
AAGCTGGT | -0.051
TGAAGCCA | -0.03
ATAACAGC | -0.0504
CCACGTTC | -0.0942
GGAGAACC | -0.0942
AGGCGCGG | -0.0442
TAAACTTA | 0.168
CTGTTTCA | 0.484
ATGGGAGA | -0.122
GTGCCAAC | 0.0106

Sequence | PBM E-score
AGATCCAT | -0.0971
CAGAGCGC | -0.15
AAAATCGT | 0.122
AGCTTTGG | -0.0819
AAACAGAT | 0.246
ACGTAATG | -0.0443
GTTCGACA | 0.0212
CAATATCC | 0.141
CCGGCTCC | -0.0246
AGGGCCAC | -0.202
AGTGCGGA | 0.0511
CTGTCTCA | 0.158
GCGAAGCC | -0.321
CCGAAAAG | 0.235
AGGGTCCC | -0.149
ATCCCTGA | -0.0412
CGCTCATC | -0.0341
GCGGAAGA | 0.0165
GCACGCTA | -0.021
CTTGGTCA | 0.0699
AGCAGCTC | -0.242
ATGGGTCC | -0.0701
AGGGCTAC | -0.121
AGCGGGAG | -0.133
ATATCCCC | 0.174

Sequence | PBM E-score
GGGTCACC | -0.13
CAGATCGC | 0.0918
GGATTTCA | 0.158
ATTTTAGC | 0.0142
AGGTCAGG | -0.104
ATCTGGAC | -0.172
TGTTTAAA | 0.26
GCGGCCCC | -0.0464
TATGGGCA | -0.0261
CGCGTGTC | -0.0421
GAACAAGC | -0.141
ATCATTAG | 0.0954
GAAAAGCC | -0.0418
ATCATACA | 0.142
ACCTGGTA | -0.0624
ACAGCTAA | -0.111
ATTAGGTG | 0.0184
ACGCGAAA | 0.0663
CTCGATCA | 0.114
GACTCACA | -0.201
CTGAACAG | -0.135
AGTTGATA | 0.0162
AGTCACTC | -0.0694
CCCGCTGC | -0.167
CGCGCTGC | -0.0222

Sequence | PBM E-score
CTGGAACA | 0.162
GCGCTGCA | 0.03
GTCCCGCA | -0.123
CAGATAAG | 0.128
ACAGGGCA | -0.0612
GTCTTATA | 0.0618
GGTATTCA | 0.0784
CACCTGTC | 0.0774
AGCACTCC | -0.00087
GCCGGCTA | 0.00039
CGGTCACG | -0.0528
AGCAAACC | 0.194
ACGGTCCC | -0.172
ATGGGATC | -0.0396
CCCCACCA | 0.102
GACGCTAA | -0.296
GCACTGCA | -0.0478
AGAGTCGA | -0.0226
CTGACGAA | 0.107
AAAACTGT | 0.222
AAACTTAC | 0.0965
AGCTAAAC | -0.0259
CGTCCTCC | -0.0384
CGTTATGA | 0.00143
ATCTAGTC | -0.0479

Sequence | PBM E-score
AGATAGCT | -0.166
CCGAGGAG | -0.0113
CGGAGTAG | -0.0132
GACAATTA | 0.208
ACGAGGCG | -0.0917
ATACTCGG | -0.0182
AAGAATAC | 0.0746
AGTTGAAC | -0.0885
AGTGTTTC | 0.332
TGCTCACA | -0.148
AAGGCCCC | -0.238
TGGATGAA | -0.0304
CGCCCCCG | 0.0361
ACTTACGC | -0.0921
GACTCTGA | 0.0577
GTCGGGGA | 0.113
ATTCGAAC | 0.105
GCGCACGC | -0.064
GCAGGCGC | -0.0349
CTGGCTAA | -0.0552
CAATGGTA | 0.126
AGGGAGCC | -0.343
ACAATCAC | -0.0305
AGTGTAAC | 0.119
GCCACACA | 0.0243

Sequence | PBM E-score
CACGCACA | -0.0166
GAAGAATA | -0.0221
CGGGGACG | 0.0284
ACTGTGTC | 0.0573
ACGAACAA | 0.0394
AATTAGGG | -0.0993
AGGGACAA | 0.0314
GTAAAGGA | 0.142
CACTTGAG | -0.0428
ACCCCCTA | -0.286
CTACTGGA | -0.0948
TCCGTGAA | 0.00225
ACGATCGC | 0.109
AGCGAACA | -0.0877
ATGTCAGA | 0.0454
AGATATCC | 0.0826
AAATGATT | 0.197
GTACGAAC | 0.0543
GCAGAACA | 0.0362
AGGTCTCG | -0.0875
GTTTCGAA | 0.325
AGCCCCCA | -0.118
TCCTTGCA | -0.134
GCCGGGCC | -0.107
ACGAATAA | 0.101

Sequence | PBM E-score
GGGCCTTA | -0.205
GACCAGAA | 0.0766
GCGAGGCC | -0.131
ACCAACCG | -0.181
ATAACGTA | 0.15
ATGCTGTG | -0.162
ATGTTTGA | 0.337
TCCTGGCA | -0.0322
CGCCGGGA | -0.123
GCGCTCCC | -0.155
CATGTATA | 0.0255
CACGAACA | 0.0211
CAATAAAG | 0.238
ACGCGCAT | -0.095
CCCCTGGA | -0.225
GCGAATCA | 0.165
GCTTAGAC | -0.0701
CCAAGGCC | -0.177
ATGAGTGG | -0.0925
TAAGAGCA | -0.0275
CACCATGC | -0.187
GAGTTTTA | 0.218
AGCACAAA | 0.133
CAAGACGG | -0.0947
ACCGAATA | 0.0212

Sequence | PBM E-score
GTCCCGGA | 0.0192
ACCATCGT | -0.188
CAGATGGG | -0.123
CCTGGTAA | -0.0794
CCTAGTAG | -0.0312
ATTGATAA | 0.0752
CCCGACGA | 0.284
CGGCGTTC | -0.151
GCATGAAC | -0.0143
GCGGAATA | 0.197
TTTTAAAA | 0.329
AGGGGAGA | -0.0864
AGTGTACA | -0.00592
CGTAGCAA | 0.00941
GAGGCTTA | -0.185
CGCAGTCC | -0.131
CTTCCAAC | 0.0668
GTGGCTTA | -0.0687
CGGTAGGC | -0.175
